This note sets out measurements from the supplement of paper PMC10600219.

Where a name gives a salt, the structure may show the parent alone. The full ranking holds about 2,800 compounds; the median of “cell viability relative to vehicle” is about 0.98, and the lowest 2% start at about 0.45. This is one part of the list.

The test system of the assay is NCI-H2228 alectinib-DTP. Description: cell viability relative to vehicle (fraction of vehicle); NCI-H2228 is an ALK-positive lung cancer line and DTP means drug-tolerant persister; higher = less growth inhibition. Conditions: 100 nM; treatment time 6 days. An outline of the steps:
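The 3114-agent TargetMol anti-cancer compound library was tested at 100 nM for 6 days on parental NCI-H2228 cells and on persister cells derived with 1000 nM of a targeted drug for 13 days. ATP readout by the CellTiter-Glo 3D Cell Viability Assay gave cell viability relative to DMSO vehicle-treated cells.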
For the compound `CSc1nc2cc(Cl)c(Oc3cccc(Cl)c3Cl)cc2[nH]1` [Triclabendazole], the cell viability was 0.984.

As to `Cc1ccccc1N1CCN(CCc2nnc3n2CCCC3)CC1` [Dapiprazole Hydrochloride], the cell viability was found to be 1.

Take `Nc1ccc(-c2ccc3ncc4ccc(=O)n(-c5cccc(C(F)(F)F)c5)c4c3c2)cn1` [Torin 2]: the cell viability worked out at 0.414.

On to `Cc1cnc(-c2ccccc2C(C)C)nc1NCc1ccc(-n2ccnn2)cc1`, for which the cell viability is 0.982.

Turning to `O=C(CCNNC(=O)c1ccncc1)NCc1ccccc1` [Nialamide], the cell viability amounted to 1.01.

The compound `CC1(C)C(O[C@@H]2OC[C@@H](O)[C@H](O)[C@H]2O)CC[C@]23CC24CC[C@]2(C)[C@@H]([C@@]5(C)CC[C@@H](C(C)(C)O)O5)[C@H](O)C[C@@]2(C)C4C[C@@H](O[C@@H]2O[C@H](CO)[C@@H](O)[C@H](O)[C@H]2O)C13` (stereo partly drawn) [Astragaloside IV] yielded a cell viability of 0.823.

Compound `CN1C(=O)C(Cc2c[nH]c3ccccc23)NC1=S` (stereo not drawn) [Necrostatin-1] came in with a cell viability of 0.772.

On to `CCN(CC)CCOc1ccc(Nc2ncc3cc(-c4c(Cl)cccc4Cl)c(=O)n(C)c3n2)cc1`, for which the cell viability amounted to 0.445.

Turning to `NS(=O)(=O)c1ccc(S(=O)(=O)Nc2cccc3c(Cl)c[nH]c23)cc1` [Indisulam], the cell viability came out at 0.961.

`CCn1c(-c2nonc2N)nc2c(C#CC(C)(C)O)ncc(OC[C@H]3CCCNC3)c21` registered a cell viability of 0.678.

`Nc1nc(OCC2CCCCC2)c2[nH]cnc2n1`: the cell viability came out at 1.01.

With `CC=CC1=C(C(=O)O)N2C(=O)[C@@H](NC(=O)[C@H](N)c3ccc(O)cc3)[C@H]2SC1` [Cefprozil hydrate], the cell viability worked out at 0.996.

As to `CC(C)OC(=O)C(C)(C)Oc1ccc(C(=O)c2ccc(Cl)cc2)cc1` [Fenofibrate], the cell viability came to 1.09.

In the case of `OCCOc1ccc(/C(=C(/CCCl)c2ccccc2)c2ccccc2)cc1` [Ospemifene], the cell viability came to 0.912.

Turning to `C=C1CC/C=C(\C)CC[C@@H]2[C@@H]1CC2(C)C` [β-Caryophyllene], the cell viability came out at 1.09.

In turn, `C[C@H]1[C@H](C)CC[C@]2(C(=O)O[C@@H]3O[C@H](CO[C@@H]4O[C@H](CO)[C@@H](O[C@@H]5O[C@H](C)[C@H](O)[C@@H](O)[C@H]5O)[C@H](O)[C@H]4O)[C@@H](O)[C@H](O)[C@H]3O)CC[C@]3(C)C(=CC[C@@H]4[C@@]5(C)C[C@@H](O)[C@H](O)[C@@](C)(CO)[C@@H]5CC[C@]43C)[C@H]12` [Asiaticoside] registered a cell viability of 1.

In turn, `O=C(NN=Cc1c(O)ccc2ccccc12)c1ccncc1` displayed a cell viability of 0.75.

Take `Cc1ccc(NC(=O)C2(c3ccc4c(c3)OC(F)(F)O4)CC2)nc1-c1cccc(C(=O)O)c1` [Lumacaftor]: the cell viability came to 0.783.

`CNC(=O)c1ccc(Nc2ncc(C(F)(F)F)c(NCc3nccnc3N(C)S(C)(=O)=O)n2)cc1` [Defactinib] registered a cell viability of 1.01.

`Cn1cc(/C=C2\C(=O)Nc3cccnc32)c2ccccc21` registered a cell viability of 0.799.

Regarding `CNC(=O)c1cc(Oc2ccc3nc(N[C@@H]4CCCC[C@H]4O)sc3c2)ccn1`, the cell viability came out at 1.15.

With `CC(N)CCCC(C)(C)O` (stereo not drawn) [Heptaminol hydrochloride], the cell viability was 1.03.

Compound `N#CCC(=O)NN` [Cyanoacetohydrazide] registered a cell viability of 1.18.

On to `CC(C)(C)c1ccc(S(=O)(=O)/C=C/C#N)cc1`, for which the cell viability turned out to be 1.06.

Compound `COc1nccnc1NS(=O)(=O)c1ccc(N)cc1` [Sulfalen] registered a cell viability of 1.25.

Compound `COc1ccc2cc(C(C)C(=O)Oc3ccc(C(N)=S)cc3)ccc2c1` (stereo not drawn) had a cell viability of 0.982.

For `COc1ccc(-c2nc(-c3cc(C(F)(F)F)cc(C(F)(F)F)c3)n(Cc3ccc(C(N)=O)cc3)c2-c2ccc(OC)cc2)cc1` [Apoptozole], the cell viability came out at 0.817.

Consider `COc1ccc(/C(C#N)=C/c2ccc(N3CCC(O)CC3)s2)cc1OC`, for which the cell viability came to 0.953.

In the case of `CC(=O)c1c(C)c2cnc(Nc3ccc(N4CCNCC4)cn3)nc2n(C2CCCC2)c1=O` [Palbociclib], the cell viability was determined as 0.797.

In turn, `CC(=O)c1c(C)c2cnc(Nc3ccc(N4CCNCC4)cn3)nc2n(C2CCCC2)c1=O` [Palbociclib Isethionate] returned a cell viability of 0.968.

`COC1=CC(=O)c2ccccc2C1=O` [2-Methoxynaphthoquinone] had a cell viability of 1.06.

Turning to `CS(=O)(=O)c1cccc(C[C@H](NC(=O)c2c(Cl)cc3c(c2Cl)CCN(C(=O)c2ccc4ccoc4c2)C3)C(=O)O)c1` [Lifitegrast], the cell viability was found to be 1.03.

Compound `CCCNC(=O)Nc1ccc(Oc2ncnc3cc(OC)c(OC)cc23)cc1Cl` returned a cell viability of 1.12.

In turn, `NC(=O)c1ccc(-c2nc(-c3ccccn3)c(-c3ccc4c(c3)OCO4)[nH]2)cc1` returned a cell viability of 0.891.

`Cc1cn(-c2cc(NC(=O)c3ccc(C)c(Nc4nccc(-c5cccnc5)n4)c3)cc(C(F)(F)F)c2)cn1` [Nilotinib]: the cell viability turned out to be 0.965.

Take `C[C@@H](O[C@H]1OCCN(Cc2n[nH]c(=O)[nH]2)[C@H]1c1ccc(F)cc1)c1cc(C(F)(F)F)cc(C(F)(F)F)c1` [Aprepitant]: the cell viability stood at 0.907.

As for `CN/C(=N\CCSCc1nc[nH]c1C)NC#N` [Cimetidine], the cell viability turned out to be 0.96.

In turn, `COc1ccc(C2=N[C@@H](c3ccc(Cl)cc3)[C@@H](c3ccc(Cl)cc3)N2C(=O)N2CCNC(=O)C2)c(OC(C)C)c1` [Nutlin-3a] came in with a cell viability of 0.977.

Consider `COc1ccc(C2=N[C@@H](c3ccc(Cl)cc3)[C@@H](c3ccc(Cl)cc3)N2C(=O)N2CCNC(=O)C2)c(OC(C)C)c1` [Nutlin3], for which the cell viability was 1.13.

Turning to `COc1ccc(S(=O)(=O)N(Cc2cccnc2)[C@@H](C(=O)NO)C(C)C)cc1`, the cell viability amounted to 1.06.

`O=C(O)c1cc(N(Cc2ccccc2O)Cc2cc(O)ccc2O)ccc1O` [lavendustin A] showed a cell viability of 1.07.

As to `Cc1cn([C@H]2C[C@H](O)[C@@H](COP(=O)(O)OP(=O)(O)OP(=O)(O)O)O2)c(=O)[nH]c1=O` [Deoxythymidine triphosphate], the cell viability is 1.05.

Compound `C/C(=C\C(=O)OCCCCCCCCC(=O)O)C[C@@H]1OC[C@H](C[C@@H]2O[C@H]2[C@@H](C)[C@H](C)O)[C@@H](O)[C@H]1O` [Mupirocin] returned a cell viability of 0.964.

For `N#C/C(=C\c1ccc(O)c(O)c1)C(=O)NCCCc1ccccc1`, the cell viability was 1.03.

In turn, `CCCCCCCCCCCCCCCC(=O)O` [Palmitic acid] had a cell viability of 1.27.

In turn, `O=C(O)c1cc(/N=N/c2ccc(S(=O)(=O)Nc3ccccn3)cc2)ccc1O` [Sulfasalazine] gave a cell viability of 0.865.

`C#C[C@]1(O)CC[C@H]2[C@@H]3CCC4=CC(=O)CC[C@@H]4[C@H]3C(=C)C[C@@]21CC` [Etonogestrel]: the cell viability stood at 0.908.

Turning to `NC(=O)c1ccc(I)c([N+](=O)[O-])c1` [Iniparib], the cell viability is 1.08.

With `c1ccc(-c2oc3ncnc(NC[C@@H]4CCCO4)c3c2-c2ccccc2)cc1`, the cell viability was 1.06.

`COc1c(O)cc2oc(-c3ccccc3)cc(=O)c2c1O` [Oroxylin A] had a cell viability of 1.13.

The compound `O=C(O)[C@H](CC(=O)N1C[C@H]2CCCC[C@H]2C1)Cc1ccccc1` [Mitiglinide calcium] displayed a cell viability of 0.857.

`C[C@]12CCC3=C4CCC(=O)C=C4CC[C@H]3[C@@H]1CC[C@@]2(O)CC#N` [Dienogest] displayed a cell viability of 0.969.

`COC(=O)c1ccc(O)c(OC)c1` [Methyl Vanillate] came in with a cell viability of 1.05.

Compound `CS(=O)(=O)c1ccc(-c2nnc(/C=C/c3nnc(-c4ccc(C#N)cc4)o3)n2-c2ccccc2Cl)nc1` returned a cell viability of 0.736.

The compound `COc1cc2ncnc(-n3nc(-c4ccccn4)nc3N)c2cc1OC` had a cell viability of 1.06.

As for `Nc1ncnc2c1ncn2C1OC(COP(=O)(O)O)C(O)C1O` (stereo not drawn) [Adenosine 5'-monophosphate monohydrate], the cell viability is 1.06.

For the compound `O=C(O)c1ccccc1O` [Salicylic acid], the cell viability came out at 1.08.

The compound `O=c1oc2cc(O)ccc2s1` [Tioxolone] gave a cell viability of 1.13.

As for `Cc1[nH]nc(C(F)(F)F)c1Cc1sc2c(c1C(=O)N1C[C@](C)(O)CO1)c(=O)n(C)c(=O)n2C(C)C`, the cell viability was 1.11.

`COc1cc2ncnc(Nc3cccc(Cl)c3)c2cc1OC` showed a cell viability of 0.759.

As to `Cc1cccc(-c2[nH]c(C(C)(C)C)nc2-c2ccc3c(c2)OCO3)n1`, the cell viability came to 1.02.

As to `CC(NC(=O)c1ccccc1/N=C/c1c(O)ccc2ccccc12)c1ccccc1` (stereo not drawn) [Sirtinol], the cell viability stood at 0.976.

`C=CCSC[C@H](N)C(=O)O` [S-allyl-L-cysteine] displayed a cell viability of 1.06.

`CC(C)(OCc1nn(Cc2ccccc2)c2ccccc12)C(=O)O` [Bindarit] registered a cell viability of 1.1.

Take `Nc1n[n+]([O-])c2ccccc2[n+]1[O-]` [Tirapazamine]: the cell viability worked out at 1.04.

As for `O=C(Nc1nc2ccc(NC(=O)C34CC5CC(CC(C5)C3)C4)cc2s1)c1ccccc1`, the cell viability stood at 1.01.

As for `CCn1c(C(=O)N(C2CC2)C2CC2)cc2c3c(ncn3C)c(Nc3cc(C)n(C)n3)nc21`, the cell viability was 0.919.

With `CCc1nc(N)nc(N)c1-c1ccc(Cl)cc1` [Pyrimethamine], the cell viability is 0.969.

Compound `CC(C)NCC(O)COc1ccc(CCOCC2CC2)cc1` (stereo not drawn) [Betaxolol hydrochloride] returned a cell viability of 1.04.

Regarding `CN1CC(=O)N2[C@H](c3ccc4c(c3)OCO4)c3[nH]c4ccccc4c3C[C@@H]2C1=O` [Tadalafil], the cell viability worked out at 0.916.

As to `O=C(O)c1cn(C2CC2)c2cc(N3CCNCC3)c(F)cc2c1=O` [Ciprofloxacin], the cell viability worked out at 0.874.

Regarding `O=C(O)c1cn(C2CC2)c2cc(N3CCNCC3)c(F)cc2c1=O` [Ciprofloxacin hydrochloride], the cell viability was 1.01.

In turn, `C/C=C(\C)C(=O)OC1c2c(ccc3ccc(=O)oc23)OC(C)(C)C1OC(=O)/C(C)=C/C` (stereo not drawn) [Praeruptorin B] yielded a cell viability of 1.02.

`CN/C(=C\[N+](=O)[O-])NCCSCc1ccc(CN(C)C)o1` [Ranitidin]: the cell viability was found to be 1.04.

`COc1ccc(-c2cc(=S)ss2)cc1` [Anethole trithione]: the cell viability was determined as 0.97.

On to `COc1cc(OC2CCN(C)CC2)ccc1Nc1ncc2c(n1)n(C1CCCC1)c(=O)n2C`, for which the cell viability came to 0.854.

`C/C(=C\c1csc(C)n1)[C@@H]1C[C@@H]2O[C@]2(C)CCC[C@H](C)[C@H](O)[C@@H](C)C(=O)C(C)(C)[C@@H](O)CC(=O)N1` [Ixabepilone] gave a cell viability of 0.454.

Compound `C#CCN[C@@H]1CCc2ccccc21` [Rasagiline] yielded a cell viability of 1.05.
